# Out of some 50,000 compounds screened, about 800 (1.6%) showed an effect of 50% or more. The list shows a part of the results.
# Biological target: Bcl-2-like protein 10 (Homo sapiens) (UniProt Q9HD36)
# Test: Phenotype converters, Bcl-B/TR3 peptide binding displacement, primary biochemical FP (AID 1240);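 also: 0% = Bcl-B with tracer peptide and DMSO and 100% = tracer peptide lacking Bcl-B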
# Conditions: GST-Bcl-B / FITC-TR3 peptide fluorescence polarization; stronger effect = higher value; compound at 3.75 mg/L
# UniProt Q9HD36, sequence (Q9HD36 whole entry, looked up): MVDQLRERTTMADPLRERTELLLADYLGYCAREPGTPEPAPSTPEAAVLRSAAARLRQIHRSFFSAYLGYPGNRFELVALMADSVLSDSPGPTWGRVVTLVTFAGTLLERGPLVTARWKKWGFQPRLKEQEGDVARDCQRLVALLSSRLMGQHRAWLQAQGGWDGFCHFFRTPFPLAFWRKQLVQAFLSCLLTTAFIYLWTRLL
row,SMILES,displacement
1,O=Cc1ccc(OCc2ccc(F)cc2)cc1,5.4%
2,COc1ccc(C(=O)Nc2cccc(C(=O)Nc3nccs3)c2)cc1,-9.6%
3,CCOc1ccc(NC(=O)c2c(Cl)ccc(Cl)c2OC)cc1,-5.3%
4,NC(=O)N/N=C/c1ccc(-c2cccc(C(F)(F)F)c2)o1,3.1%
5,O=C1OC(c2ccccc2F)=N/C1=C\c1ccc(Br)cc1,9%
6,C/C=C/C(=O)N1c2ccc(OC)cc2C(C)=CC1(C)C,-6.5%
7,CN(C)c1ccnc2sc3c(N(CCO)CCO)ncnc3c12,-3.4%
8,O=C(CSc1nnc(-c2cccc(F)c2)n1-c1ccccc1)Nc1ccc(Br)cc1,5.3%
9,O=C(c1cc2ccccc2o1)N1CCC(c2ccccc2)C1 (centres undefined),11.4%
10,COc1ccc(OC)c(NC(=O)c2ccc(C)c(C)c2)c1,14.8%
11,COC(=O)COc1ccc(C(=O)CSc2nc3cc(OC)ccc3n2C)cc1,1.1%
12,CC1=NN(c2ccc(C)c(C)c2)C(=O)/C1=C\c1ccc(N(C)C)cc1,11.4%
13,O=C1c2cccc3cccc(c23)C(=O)N1c1ccc(Br)cn1,2.6%
14,c1ccc2c(-c3nc4ccccc4o3)cccc2c1,2.1%
15,CCOC(=O)c1c(NC(=O)CCCC(=O)O)sc2c1CCC(C(C)(C)C)C2 (centres undefined),1.4%
16,COc1cccc(-n2c(O)c(/C=C3\C=c4ccccc4=N3)c(=O)[nH]c2=O)c1,-0.4%
17,COC(=O)c1c(NC(=O)CCC(=O)O)sc(C)c1-c1ccc(C)cc1,-7.5%
18,O=C1c2ccc(Oc3ccc([N+](=O)[O-])cc3)cc2C(=O)N1c1nc2ccccc2s1,-8.9%
19,CC(=O)COc1cc(C)cc2oc(=O)cc(-c3ccccc3)c12,9.1%
20,COc1ccc2[nH]c3c(c2c1)CCC/C3=N\N,1.8%
21,O=C1NC(=O)N(c2ccc(Cl)cc2)C(=O)/C1=C\c1ccc(-c2ccc(C(=O)O)c(Cl)c2)o1,-7.8%
22,COC(=O)c1ccc(C(=O)OC)c(NC(=O)/C=C/c2cccc([N+](=O)[O-])c2)c1,-3.1%

row,SMILES,displacement
1,Cc1ccc(-n2cc(/C=c3\sc4nc5cc(C)c(C)cc5n4c3=O)cn2)cc1C,-8.9%
2,O=C(O)c1ccc(N2C(=O)CC(SC(=NCCc3ccccc3)Nc3ccc(F)cc3)C2=O)cc1 (centres undefined),-3.5%
3,COc1ccc(CNC(=O)COc2cccc(C)c2)cc1,-16.4%
4,O=C(O)C(Sc1nc2ccccc2s1)c1ccccc1 (centres undefined),-4.2%
5,COc1ccc(NC(=O)/C=C2\NC(C)(C)Cc3ccccc32)cc1,-1.3%
6,Cc1cccc2c1N(C(=O)CN1C(=O)c3ccccc3C1=O)C(C)(C)c1ssc(=S)c1-2,-5%
7,COc1ccc(CCNC(=S)NC(=O)c2ccccc2)cc1OC,19%
8,Brc1ccccc1-c1nc(-c2cccnc2)no1,-7.8%
9,COc1ccc(C=C2NC(=S)N(c3ccccc3)C2=O)c(OC)c1,3.7%
10,O=C(/C=C/c1ccccc1)OCCN=C1NS(=O)(=O)c2ccccc21,9.1%
11,CCOC(=O)C1=C(C)N=c2s/c(=C\c3ccc([N+](=O)[O-])o3)c(=O)n2C1c1ccc(C)cc1 (centres undefined),12.6%
12,O=C(Nc1ccccc1)c1ccc(-c2ccccc2)cc1,3.8%
13,Fc1ccccc1C=NN1CCN(Cc2ccccc2Cl)CC1,-6%
14,CCC(=O)N1N=C(c2ccccc2)CC1c1ccc([N+](=O)[O-])cc1 (centres undefined),-13%
15,COc1ccc(S(=O)(=O)Nc2ccc(C)c(Cl)c2)cc1OC,13.7%
16,CCOC(=O)C1=C(N)Oc2ccc3ccccc3c2C1c1ccc(Cl)cc1 (centres undefined),-10.4%
17,Cc1ccc(C(=O)Oc2ccc3c(-c4ccccc4)cc(=O)oc3c2)cc1,12.3%
18,O=C(CN1C(=O)c2cccc3cccc(c23)C1=O)N1CCCC1,9.6%
19,O=C(c1ccccc1Cl)N1CCc2ccccc21,17.9%
20,O=C(c1ccco1)N1CCN(Cc2ccc(F)cc2)CC1,-9.8%
21,COc1ccc(-n2nc3cc(C)c(NC(=O)COc4ccc(C)c(C)c4)cc3n2)cc1,4.4%
22,Cc1ccc(S(=O)(=O)N(CC(C)C)CC(C)C)cc1,-2.4%

row,SMILES,displacement
1,O=C(NCCN1CCOCC1)c1cnn2c(C(F)(F)F)cc(-c3ccco3)nc12,0.3%
2,CCN1C(=O)/C(=C\c2cc(Br)cc([N+](=O)[O-])c2O)SC1=S,-40.5%
3,CC1=C(C(=O)Nc2ccc(C)cc2)C(c2ccc(C)cc2)NC(=O)N1 (centres undefined),-12.8%
4,O=C(CCC1CCCC1)Nc1ccc(Br)cn1,-4.6%
5,CCOC(=O)c1oc2ccc(C=NCc3ccccc3)c(Cl)c2c1C,-3.5%
6,O=c1/c(=C/c2ccc([N+](=O)[O-])cc2)sc2nc3ccccc3n12,86.7%
7,Clc1ccc(N2CCN(/N=C/c3ccccc3Cl)CC2)cc1,-5.4%
8,COc1ccc2c(c1)-c1c(sn(-c3cc(C)ccc3O)c1=S)C(C)(C)N2,5.1%
9,Cc1oc(NC(=O)CCCC(=O)O)c(C#N)c1C,32.1%
10,O=C(Cc1ccc(Br)cc1)Nc1cc(Cl)c(Cl)cc1Cl,15.1%
11,CCCSc1nnc(NC(=O)c2cccc(Cl)c2)s1,9.8%
12,O=C(Nc1cccc2ccccc12)C1(c2ccccc2)CCOCC1,-4%
13,COc1ccc(-c2cc(C(F)(F)F)n3nc(C(=O)N4CCN(C)CC4)cc3n2)cc1,3.1%
14,CC(C)c1ccc(N2C(=O)NC(=O)/C(=C/c3ccc(F)cc3)C2=O)cc1,-6.3%
15,CC1=C(C(=O)OCCC#N)C(c2cccc([N+](=O)[O-])c2)NC(=O)N1 (centres undefined),1.9%
16,O=C(Nc1ccccc1C(=O)Nc1ccccn1)c1ccccc1Cl,4%
17,CCCCOc1ccc(-c2ccc(C(N)=O)cc2)cc1,-2.1%
18,COc1ccccc1C(O)C(F)(F)F (centres undefined),-6.7%
19,COc1ccccc1/C=C1/SC(=S)N(CNc2ccc(C)c(Cl)c2)C1=O,13.2%
20,O=C(COc1ccc(Cl)cc1Cl)N1CCC(Cc2ccccc2)CC1,-9.3%
21,Cc1ccc(-c2csc(/C(C#N)=C/c3ccsc3)n2)cc1,-5.9%
22,CCOc1ccc2c(c1)NC(C)(C)C1=C2C2(SC(C(=O)OC)=C(C(=O)OC)S2)C(C(=O)OC)=C(C(=O)OC)S1,-8.5%

row,SMILES,displacement
1,Clc1ccc(CN2CCN(/N=C/c3cccnc3)CC2)cc1,-2.4%
2,COc1ccc(/C=N/NC(=O)CCn2c3ccccc3c3ccccc32)cc1,6.3%
3,COc1ccc(C=NC2=NN(c3ccccc3)CC2)cc1,12.2%
4,COCCCNC(=O)c1ccc(N(C)S(=O)(=O)c2ccccc2)cc1,4.4%
5,COc1ccc(Cl)cc1/C=C(/C#N)C(=O)Nc1ccc(Cl)cc1,-13.4%
6,O=C(/C=C/c1ccc(F)cc1)NC1CC1,4.7%
7,COc1cc2ccccc2cc1C(=O)Nc1sc2c(c1C(N)=O)CCCC2,14.4%
8,O=C(Nc1ccc(NC(=O)c2cc3ccccc3o2)cc1)c1ccc(Br)cc1,-3.4%
9,CC1(C)Cc2c(sc3nc(NN)n(-c4ccccc4)c(=O)c23)CO1,-36.5%
10,Oc1ccc(Br)cc1CN1CCN(Cc2ccccn2)CC1,5.1%
11,COc1ccc(C(=O)Nc2ccc(C)c([N+](=O)[O-])c2)cc1OC,1.2%
12,CCc1c(C)sc(NC(=O)CCc2ccccc2)c1C(N)=O,11.5%
13,COc1cccc2cc(C(=O)Nc3c(C)n(C)n(-c4ccccc4)c3=O)c(=O)oc12,-4%
14,Cc1ccccc1-c1cc(C(=O)O)c2ccccc2n1,2.3%
15,C(=C\c1nc(-c2cccnc2)no1)/c1ccccc1,6.6%
16,O=C(/C=C/Nc1ccccc1F)c1ccccc1,8.2%
17,Cc1ccc(S(=O)(=O)N2C(=O)CC[C@@H]2C(=O)N2CCn3c4c(c5cc(C)ccc53)CCCC42)cc1 (some centres undefined),10.6%
18,O=C(Nc1ccc(I)cc1Cl)c1ccc2c(c1)OCCO2,-1.1%
19,Cc1cc(C)nc(NC(=O)c2c(-c3c(Cl)cccc3Cl)noc2C)c1,5.8%
20,COc1ccccc1OCCSc1nc2ccccc2n1CC(=O)O,5.6%
21,CSc1nc2ccc(NC(=O)CSc3nc4ccccc4s3)cc2s1,-4.3%
22,COc1ccc(/C=N/NC(=O)c2[nH]c3ccc([N+](=O)[O-])cc3c2-c2ccccc2)cc1,-1.5%

row,SMILES,displacement
1,Cc1cc(/C=C2\C(=O)NC(=S)N(c3ccccc3F)C2=O)c(C)n1-c1cccnc1,10.3%
2,Cc1c(C(=O)OC(C)C)sc(NC(=O)c2ccc([N+](=O)[O-])cc2Cl)c1C(=O)OC(C)C,8.2%
3,COC(=O)c1ccc(C(=O)OC)c(NC(=O)/C=C/c2ccc(F)cc2)c1,-4.8%
4,Cc1c(C(=O)Nc2ccc(Nc3ccccc3)cc2)cccc1[N+](=O)[O-],-5.8%
5,N/C(Cc1ccc(Cl)cc1)=N\OC(=O)/C=C/c1ccccc1,-2.9%
6,O=C(c1ccc2c(c1)OCCO2)N1CCOCC1,-3.4%
7,Cc1ccc(S(=O)(=O)Nc2cccc(C)c2C)cc1[N+](=O)[O-],14%
8,S=C(NC1CCCCC1)NC(c1ccccc1)(c1ccccc1)c1ccccc1,15.4%
9,CN(C)c1ccc(CNC(=O)C(O)(c2ccccc2)c2ccccc2)cc1,8.7%
10,Cc1ccc(C2NC(=O)NC(O)(C(F)(F)F)C2C(=O)c2ccc(Br)cc2)cc1 (centres undefined),11.2%
11,COC(=O)C1=C(C)N(C)C(C)=C(C(=O)OC)C1c1cccc([N+](=O)[O-])c1,-6.6%
12,O=C(CCN1C(=O)S/C(=C/c2ccc(Cl)cc2)C1=O)Nc1ccc(S(=O)(=O)Nc2nccs2)cc1,12.1%
13,COc1ccc(OCC(O)Cn2c(C)nc3ccccc32)cc1 (centres undefined),-22.4%
14,CCOC(=O)C(=Cc1ccc(-c2ccc(Cl)cc2Cl)o1)C(=O)OCC,26.4%
15,COc1ccc(-c2noc(COc3cccc(C)c3)n2)cc1OC,4.9%
16,NS(=O)(=O)c1ccc(CNC(=O)c2ccco2)cc1,9.8%
17,CCC(=O)N1c2ccc(C)cc2C(=C2SC(C(=O)OC)=C(C(=O)OC)S2)C(=S)C1(C)C,3.9%
18,O=C(NCc1ccncc1)c1cccc(Cl)c1,-0.7%
19,Clc1ccc(-c2csc(Nc3ncccn3)n2)cc1Cl,11.2%
20,CS(=O)(=O)N(CC(=O)Nc1cc(Cl)cc(Cl)c1)c1ccc(Cl)cc1,-3.2%
21,COc1ccc(CCNC(=O)c2ccccc2N(Cc2ccccc2)S(=O)(=O)c2ccccc2)cc1OC,-7.2%
